# Results reported in the supplement of paper PMC8728848.
# This is one part of the list.
# What was measured:
# Experiment in all cases: glycan array binding signal (z-score within array); higher = stronger binding
# Conditions in all cases: glycan notation: IUPAC condensed, linker removed
# [1] = target: Neu5Ac(a2-3)Gal(b1-4)GlcNAc(b1-3)Gal(b1-4)GlcNAc(b1-3)Gal(b1-4)GlcNAc
# Outline: (§1)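 Glycan array data came from 3228 arrays in the Consortium for Functional Glycomics database, and only arrays with an available protein sequence were kept. Glycan names were put into IUPAC-condensed notation, and columns mapping to the same glycan were averaged. The binding signal is a within-array Z-score, averaged across arrays of one protein sequence run at different concentrations or buffers and across linkers. A negative Z-score can be read as non-binding.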
# [2] = target: Neu5Ac(a2-3)Gal(b1-4)GlcNAc(b1-3)Gal(b1-4)GlcNAc(b1-3)Gal(b1-4)GlcNAc(b1-2)Man(a1-3)[Neu5Ac(a2-3)Gal(b1-4)GlcNAc(b1-3)Gal(b1-4)GlcNAc(b1-3)Gal(b1-4)GlcNAc(b1-2)Man(a1-6)]GalNAc
# Outline: as §1
# [3] = target: Neu5Ac(a2-3)Gal(b1-4)GlcNAc(b1-3)Gal(b1-4)GlcNAc(b1-3)GalNAc
# Outline: as §1
# [4] = target: Neu5Ac(a2-3)Gal(b1-4)GlcNAc(b1-3)Gal(b1-4)GlcNAc(b1-3)[Neu5Ac(a2-3)Gal(b1-4)GlcNAc(b1-3)Gal(b1-4)GlcNAc(b1-6)]GalNAc
# Outline: as §1
# [5] = target: Neu5Ac(a2-3)Gal(b1-4)GlcNAc(b1-3)Gal(b1-4)GlcNAc(b1-6)[Gal(b1-3)]GalNAc
# Outline: as §1
# [6] = target: Neu5Ac(a2-3)Gal(b1-4)GlcNAc(b1-3)Gal(b1-4)[Fuc(a1-3)]GlcNAc
# Outline: as §1
# [7] = target: Neu5Ac(a2-3)Gal(b1-4)GlcNAc(b1-3)GalNAc
# Outline: as §1
# [8] = target: Neu5Ac(a2-3)Gal(b1-4)GlcNAc(b1-3)[Neu5Ac(a2-3)Gal(b1-4)GlcNAc(b1-6)]GalNAc
# Outline: as §1
# [9] = target: Neu5Ac(a2-3)Gal(b1-4)GlcNAc(b1-6)GalNAc
# Outline: as §1
# [10] = target: Neu5Ac(a2-3)Gal(b1-4)GlcNAc(b1-6)[Gal(b1-3)]GalNAc
# Outline: as §1
# [11] = target: Neu5Ac(a2-3)Gal(b1-4)GlcNAc(b1-6)[Neu5Ac(a2-3)Gal(b1-3)]GalNAc
# Outline: as §1
# [12] = target: Neu5Ac(a2-3)Gal(b1-4)GlcNAc6S
# Outline: as §1
# [13] = target: Neu5Ac(a2-3)Gal(b1-4)[Fuc(a1-3)]GlcNAc
# Outline: as §1
# [14] = target: Neu5Ac(a2-3)Gal(b1-4)[Fuc(a1-3)]GlcNAc(b1-2)Man
# Outline: as §1
# [15] = target: Neu5Ac(a2-3)Gal(b1-4)[Fuc(a1-3)]GlcNAc(b1-3)Gal
# Outline: as §1
# [16] = target: Neu5Ac(a2-3)Gal(b1-4)[Fuc(a1-3)]GlcNAc(b1-3)Gal(b1-4)GlcNAc
# Outline: as §1
# [17] = target: Neu5Ac(a2-3)Gal(b1-4)[Fuc(a1-3)]GlcNAc(b1-3)Gal(b1-4)[Fuc(a1-3)]GlcNAc(b1-3)Gal(b1-4)[Fuc(a1-3)]GlcNAc
# Outline: as §1
# [18] = target: Neu5Ac(a2-3)Gal(b1-4)[Fuc(a1-3)]GlcNAc(b1-3)GalNAc
# Outline: as §1
# [19] = target: Neu5Ac(a2-3)Gal(b1-4)[Fuc(a1-3)]GlcNAc(b1-6)[Gal(b1-3)]GalNAc
# Outline: as §1
# [20] = target: Neu5Ac(a2-3)Gal(b1-4)[Fuc(a1-3)]GlcNAc(b1-6)[Neu5Ac(a2-3)Gal(b1-3)]GalNAc
# Outline: as §1
# [21] = target: Neu5Ac(a2-3)Gal(b1-4)[Fuc(a1-3)]GlcNAc6S
# Outline: as §1
# [22] = target: Neu5Ac(a2-3)Gal6S(b1-4)GlcNAc
# Outline: as §1
# [23] = target: Neu5Ac(a2-3)Gal6S(b1-4)[Fuc(a1-3)]GlcNAc
# Outline: as §1
# [24] = target: Neu5Ac(a2-3)GalNAc
# Outline: as §1
# [25] = target: Neu5Ac(a2-3)GalNAc(b1-4)GlcNAc
# Outline: as §1
# [26] = target: Neu5Ac(a2-3)[GalNAc(b1-4)]Gal(b1-4)Glc
# Outline: as §1
# [27] = target: Neu5Ac(a2-3)[GalNAc(b1-4)]Gal(b1-4)GlcNAc
# Outline: as §1
# [28] = target: Neu5Ac(a2-3)[GalNAc(b1-4)]Gal(b1-4)GlcNAc(b1-3)GalNAc
# Outline: as §1
# [29] = target: Neu5Ac(a2-3)[Neu5Ac(a2-6)]GalNAc
# Outline: as §1
# [30] = target: Neu5Ac(a2-6)Gal
# Outline: as §1
# [31] = target: Neu5Ac(a2-6)Gal(b1-3)GlcNAc(b1-3)[Gal(b1-4)GlcNAc(b1-6)]Gal(b1-4)Glc
# Outline: as §1
# [32] = target: Neu5Ac(a2-6)Gal(b1-4)Glc
# Outline: as §1
# [33] = target: Neu5Ac(a2-6)Gal(b1-4)GlcNAc
# Outline: as §1
# [34] = target: Neu5Ac(a2-6)Gal(b1-4)GlcNAc(b1-2)Man
# Outline: as §1
# [35] = target: Neu5Ac(a2-6)Gal(b1-4)GlcNAc(b1-2)Man(a1-3)Man(b1-4)GlcNAc(b1-4)GlcNAc
# Outline: as §1
# [36] = target: Neu5Ac(a2-6)Gal(b1-4)GlcNAc(b1-2)Man(a1-3)[Gal(b1-4)GlcNAc(b1-2)Man(a1-6)]Man(b1-4)GlcNAc(b1-4)GlcNAc
# Outline: as §1
# [37] = target: Neu5Ac(a2-6)Gal(b1-4)GlcNAc(b1-2)Man(a1-3)[GlcNAc(b1-2)Man(a1-6)]Man(b1-4)GlcNAc(b1-4)GlcNAc
# Outline: as §1
# [38] = target: Neu5Ac(a2-6)Gal(b1-4)GlcNAc(b1-2)Man(a1-3)[GlcNAc(b1-4)][Neu5Ac(a2-6)Gal(b1-4)GlcNAc(b1-2)Man(a1-6)]Man(b1-4)GlcNAc(b1-4)GlcNAc
# Outline: as §1
binder,measurement,setting,value
FGFR2-Fc (protein) MVNVTDAISSGDDEDDTDGAEDFVSENSNNKRAPYWTNTEKMEKRLHAVPAANTVKFRCPAGGNPMPTMRWLKNGKEFKQEHRIGGYKVRNQHWSLIMESVVPSDKGNYTCVVENEYGSINHTYHLDVVERSPHRPILQAGLPANASTVVGGDVEFVCKVYSDAQPHIQWIKHVEKNGSKYGPDGLPYLKVLKHSGINSSNAEVLALFNVTEADAGEYICKVSNYIGQANQSAWLTVLPKQQAPGREKEITASPDYLETRPLEQKLISEEDLAANDILDYKDDDDKV,glycan array binding signal (z-score),[1],-0.144
same,glycan array binding signal (z-score),[2],0.311
same,glycan array binding signal (z-score),[3],0.123
same,glycan array binding signal (z-score),[4],0.211
same,glycan array binding signal (z-score),[5],-0.459
same,glycan array binding signal (z-score),[6],-0.426
same,glycan array binding signal (z-score),[7],0.182
same,glycan array binding signal (z-score),[8],0.313
same,glycan array binding signal (z-score),[9],0.126
same,glycan array binding signal (z-score),[10],0.924
same,glycan array binding signal (z-score),[11],0.194
same,glycan array binding signal (z-score),[12],0.533
same,glycan array binding signal (z-score),[13],-0.609
same,glycan array binding signal (z-score),[14],-0.19
same,glycan array binding signal (z-score),[15],1.09
same,glycan array binding signal (z-score),[16],-0.296
same,glycan array binding signal (z-score),[17],-0.446
same,glycan array binding signal (z-score),[18],0.35
same,glycan array binding signal (z-score),[19],0.455
same,glycan array binding signal (z-score),[20],-0.328
same,glycan array binding signal (z-score),[21],-0.024
same,glycan array binding signal (z-score),[22],0.354
same,glycan array binding signal (z-score),[23],-0.696
same,glycan array binding signal (z-score),[24],0.151
same,glycan array binding signal (z-score),[25],0.034
same,glycan array binding signal (z-score),[26],-0.275
same,glycan array binding signal (z-score),[27],-0.479
same,glycan array binding signal (z-score),[28],-0.14
same,glycan array binding signal (z-score),[29],0.729
same,glycan array binding signal (z-score),[30],-0.146
same,glycan array binding signal (z-score),[31],-0.257
same,glycan array binding signal (z-score),[32],-0.521
same,glycan array binding signal (z-score),[33],-0.018
same,glycan array binding signal (z-score),[34],-0.006
same,glycan array binding signal (z-score),[35],-0.132
same,glycan array binding signal (z-score),[36],-0.297
same,glycan array binding signal (z-score),[37],-0.022
same,glycan array binding signal (z-score),[38],-0.136
